The record followed here is PubChem BioAssay AID1346428 (National Center for Advancing Translational Sciences (NCATS), 2018).

The whole screen tested about 48,000 compounds, of which about 1,200 (2.5%) were called active. Another 2% or so got no clear call; they are omitted.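 How the source made its calls: active means activation of at least 60% and not above a set upper limit (about 1 call in 100 departs from these limits); inconclusive means activation of 40% to 60%, or above that upper limit; inactive means activation under 40%.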 This is one part of the list.

The assay concerns the target Probable G-protein coupled receptor 32 (Homo sapiens) (UniProt O75388). Description: qHTS for Agonists of Human Resolvin D1 Receptor DRV1. Further: 0% is about no effect. To be noted: CHO-K1 GPR32 beta-arrestin PathHunter luminescence, 90 min; at 76.9 µM; stronger effect = higher value; zero percent set by DMSO-only wells. A digest of the protocol: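 Luminescent readout of beta-Gal complementation quantifies ligand-induced beta-arrestin association with GPR32 in CHO-K1 cells; 90 min compound incubation at 37 °C, detection 1 h at room temperature.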
UniProt O75388, sequence (O75388 whole entry, looked up): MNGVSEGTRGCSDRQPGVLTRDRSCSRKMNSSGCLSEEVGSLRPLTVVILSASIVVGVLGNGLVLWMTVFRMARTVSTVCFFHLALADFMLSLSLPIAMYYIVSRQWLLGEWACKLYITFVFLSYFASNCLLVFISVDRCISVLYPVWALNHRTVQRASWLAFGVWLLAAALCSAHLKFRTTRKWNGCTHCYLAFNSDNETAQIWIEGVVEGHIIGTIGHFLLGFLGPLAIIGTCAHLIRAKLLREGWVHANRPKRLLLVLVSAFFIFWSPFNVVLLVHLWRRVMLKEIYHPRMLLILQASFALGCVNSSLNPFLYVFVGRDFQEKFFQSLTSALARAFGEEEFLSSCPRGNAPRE
(qHTS replaces the single test concentration by a dilution series.)
For `O=C(Nc1ccc(Br)cc1F)N1CC=C(c2c[nH]c3ccccc23)CC1`, the activation was inactive: -20.5%.

As for `CC(=O)c1ccccc1OCC(O)Cn1c(CO)nc2ccccc21` (stereo not drawn), the activation is inactive: 27.4%.

Consider `CCOc1ccccc1NC(=O)C1CCCN1S(=O)(=O)c1ccc2c(c1)C(C)(C)C(=O)N2C` (stereo not drawn), for which the activation is inactive: -16.3%.

Turning to `COc1cc(C(=O)Nc2ccc3c(c2)N(C2CCCC2)C(=O)c2ccccc2S3)cc(OC)c1OC`, the activation is inactive: -1.76%.

In the case of `Cc1ccc(C)c(NC(=O)Cn2cc(C(=O)c3cccs3)c3ccccc32)c1`, the activation was inactive: -12.4%.

In the case of `CC(C)Oc1ccc(C(=O)NCC(c2ccc(N(C)C)cc2)N2CCCC2)cc1` (stereo not drawn), the activation is inactive: -5.64%.

As for `CCOc1ccccc1NC(=O)CCNS(=O)(=O)c1cccc2nonc12`, the activation is inactive: -5.1%.

With `CCOC(=O)c1c(NC(=O)c2cc3nc(-c4ccc(Br)cc4)cc(C(F)(F)F)n3n2)sc(C(C)=O)c1C`, the activation is inactive: 3.87%.

With `CCC(C(=O)NCc1ccc(OC)c(OC)c1)n1nc(C)c2c(C)n(-c3ccc(C)cc3)nc2c1=O` (stereo not drawn), the activation is inactive: -8.19%.

`Cc1ccc(C(=O)COC(=O)c2cccc(NC(=O)c3ccc(Cl)cc3Cl)c2)cc1`: the activation is inactive: -2.55%.

On to `COc1ccc(NC(=O)N2CCOc3ccc(Cl)cc32)cc1`, for which the activation is inactive: -27.4%.

`Nc1c(C(=O)Nc2ccccc2F)sc2nc3c(cc12)CCCCCC3`: the activation is active: 71.8%.

For `Cc1ccc(NS(=O)(=O)c2cc(-c3cnc(C4CC4)o3)ccc2C)cc1Cl`, the activation is inactive: -4.82%.

As for `Cc1cc(NC(=O)c2ccc3c(c2)OCCO3)cc(-c2nc3ccccc3o2)c1O`, the activation is inactive: 23.2%.

Consider `COc1ccc(Cc2nc3c4cnn(-c5ccccc5F)c4ncn3n2)cc1`, for which the activation is inactive: -3.47%.

Consider `COc1ccc(Cl)cc1N(C)C(=O)c1cc2c(=O)oc3ccc(C)cc3c2s1`, for which the activation is inactive: 29.1%.

`CCOC(=O)c1ccccc1NC(=O)CN1CCCN(Cc2cccc(Cl)c2)S1(=O)=O`: the activation was inactive: -23.4%.

Turning to `CCc1ccc(NC(=O)CCNS(=O)(=O)c2ccc3c(c2)oc(=O)n3C)cc1`, the activation is inactive: 9.52%.

On to `CCCCNC(=O)c1cc(-c2ccc(OC)cc2)nc2n[nH]c(-c3cccc([N+](=O)[O-])c3)c12`, for which the activation is inactive: -12.7%.

As to `CCc1ccccc1NC(=O)CN1CCCN(Cc2cc(C)ccc2C)S1(=O)=O`, the activation is inactive: -9.46%.

Consider `Cc1ccc(CNC(=O)c2ccc3c(c2)nc2n3CCOC2)cc1`, for which the activation was inactive: -9.14%.

Consider `Cc1ccc(-n2nc(C)c3c(C(=O)NCCc4ccccc4)cc(C)nc32)cc1`, for which the activation was inactive: -13.2%.

With `CCN(CC)c1ccc(C(=O)NCc2ccc3c(c2)CCN3C(=O)c2ccc(F)cc2)cc1`, the activation is inactive: -34.3%.

Turning to `CCN(CC)CCCNC(=O)c1nn(C)c2c1CSc1ccccc1-2`, the activation was inactive: -4.2%.

Consider `COc1ccccc1-c1cc(C(=O)Nc2cc(OC)c(OC)c(OC)c2)no1`, for which the activation is inactive: -3.4%.

Regarding `COc1ccc(C(C)=O)cc1CSc1nc(NCCc2ccccc2)c2ccccc2n1`, the activation was inactive: -7.01%.

`Cc1cccc(N(CC(=O)NCCSCc2cccc(Cl)c2)S(=O)(=O)c2ccccc2)c1C`: the activation is inactive: 19.8%.

For the compound `CCCS(=O)(=O)c1c(S(=O)(=O)CCC)c2cc(CC)ccn2c1C(=O)c1ccc(Cl)cc1`, the activation is inactive: -11.7%.

Regarding `Cc1ccc(NC(=O)C2CCN(S(=O)(=O)c3c(C)noc3/C=C/c3cccs3)CC2)cc1F`, the activation is inactive: -28.7%.

Regarding `COc1ccc(NC(=O)CCc2nc3c(C)nn(-c4ccc(C)cc4)c3n(C)c2=O)cc1`, the activation is inactive: 0.164%.

For the compound `O[Si](CCCN1CCCCC1)(c1ccc(F)cc1)C1CCCCC1` (stereo not drawn), the activation is inactive: 8.87%.

Regarding `COc1ccc(C2NC(=O)N(C)C3=C2C(=O)N(c2cccc(C(=O)O)c2)C3)cc1` (stereo not drawn), the activation is inactive: 2.61%.

For `COc1ccc(Cl)cc1CNCCSc1nnnn1-c1ccccc1`, the activation was inactive: -17.7%.
